Measured values taken from publication PMC4336329 (PLoS ONE, 2015).
Among all 310,000 compounds or so, about 2,200 (0.71%) showed an effect of 50% or more. The effect is printed as a negative number. The list shows a part of the results.

Molecular target: human ether-à-go-go-related gene (hERG) potassium channel (human, UniProt Q12809)
Assay: primary screen, population patch clamp on CHO cells stably expressing hERG

human ether-à-go-go-related gene (hERG) potassium channel, sequence (Q12809 whole entry, looked up): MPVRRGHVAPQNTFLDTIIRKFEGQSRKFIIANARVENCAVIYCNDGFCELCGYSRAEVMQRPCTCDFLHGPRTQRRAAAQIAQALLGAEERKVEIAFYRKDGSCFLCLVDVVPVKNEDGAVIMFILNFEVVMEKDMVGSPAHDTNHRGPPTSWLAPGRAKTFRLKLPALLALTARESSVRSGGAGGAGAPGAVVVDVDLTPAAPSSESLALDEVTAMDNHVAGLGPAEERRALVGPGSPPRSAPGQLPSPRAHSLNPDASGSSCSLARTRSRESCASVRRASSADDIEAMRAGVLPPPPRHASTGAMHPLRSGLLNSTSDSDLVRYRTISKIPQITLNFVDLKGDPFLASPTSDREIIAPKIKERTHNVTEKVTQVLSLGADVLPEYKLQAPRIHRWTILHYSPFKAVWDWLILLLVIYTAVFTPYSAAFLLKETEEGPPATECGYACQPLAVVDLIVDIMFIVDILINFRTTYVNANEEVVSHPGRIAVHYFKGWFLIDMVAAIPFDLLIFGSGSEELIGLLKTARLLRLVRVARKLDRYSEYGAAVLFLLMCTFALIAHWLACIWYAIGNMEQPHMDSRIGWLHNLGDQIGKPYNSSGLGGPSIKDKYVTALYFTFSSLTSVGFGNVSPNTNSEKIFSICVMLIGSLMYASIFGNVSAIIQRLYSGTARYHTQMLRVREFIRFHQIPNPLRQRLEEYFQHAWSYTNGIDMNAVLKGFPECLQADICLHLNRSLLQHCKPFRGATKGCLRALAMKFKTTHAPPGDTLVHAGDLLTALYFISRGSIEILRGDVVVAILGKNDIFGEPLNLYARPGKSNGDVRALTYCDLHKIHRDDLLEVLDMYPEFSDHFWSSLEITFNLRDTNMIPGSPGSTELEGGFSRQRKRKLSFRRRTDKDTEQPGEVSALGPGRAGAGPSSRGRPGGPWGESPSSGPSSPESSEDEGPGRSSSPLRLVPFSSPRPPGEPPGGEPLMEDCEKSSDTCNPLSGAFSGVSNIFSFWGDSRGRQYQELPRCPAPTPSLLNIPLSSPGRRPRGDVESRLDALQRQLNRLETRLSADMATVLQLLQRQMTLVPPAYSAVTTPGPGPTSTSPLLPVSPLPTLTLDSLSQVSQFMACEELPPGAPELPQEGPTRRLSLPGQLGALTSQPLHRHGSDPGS

Point of comparison: `O=C(CCc1ccccc1)NC(NC(=S)Nc1ccc(Cl)cc1)C(Cl)(Cl)Cl` (stereo not shown), “hERG current change (%, negative = inhibition) at 1uM” value 15.2%. Against it:
- C=CCn1c(C)cc(C(=O)COc2nncc3ccccc23)c1C — higher, 18.9%
- O=C(O)c1c(-c2ccccc2)oc2ccc(O)cc12 — lower, 12%
- COc1cccc(C(=O)N2CCC(CCC(=O)Nc3cccc(C)c3)CC2)c1 — lower, -5.87%
- CCOc1ccccc1N1CCN(CC(=O)NCCc2ccc(S(N)(=O)=O)cc2)CC1 — lower, 5.35%
- CSc1nc2c(c(=O)n1-c1ccc(C)cc1)SCC2 — lower, 9.39%
- CC(C)N1CCN(Cc2ccsc2)CC1CCO (stereo not shown) — lower, 5.73%
- CCOC(=O)c1c(NC(=O)COC)sc(C(C)=O)c1C — lower, 13.5%
- CCN(CC)C(=O)c1ccccc1NC(=O)CN1C(=O)c2ccccc2S1(=O)=O — lower, 13.2%
- CCCSc1ccc([C@@H]2[C@H]3C(=O)N(CC)C(=O)[C@H]3[C@]3(C(=O)OC)CCCCN23)cc1OC.O=C(O)C(F)(F)F — lower, 13.7%
- O=C(CSc1nnc(-c2ccccc2)n1Cc1ccco1)Nc1ccc(S(=O)(=O)N2CCCC2)cc1 — lower, 5.39%
- CCN(CC)c1nc(-c2cccc(OC)c2O)nc2ccccc12 — higher, 18.3%
- Cc1cc(C)n2nc(SC3CCCCN(C(=O)c4ccc(F)cc4)C3=O)nc2n1 (stereo not shown) — lower, 0.703%
- COCC(C)OC(=O)c1c(N)n(Cc2ccco2)c2nc3ccccc3nc12 (stereo not shown) — lower, -3.57%
- CCCNC(=O)N(CCOC)CC1CCCN(C2Cc3ccccc3C2)C1 (stereo not shown) — lower, -1.59%
- Clc1ccc(CN2CCCCCCC2)cc1Cl — lower, 9.18%
- COc1ccc(/C=C/CN2CCC(n3nccc3NC(=O)C3CC3)CC2)cc1 — lower, -59.6%
- O=C(NCc1nc2ccccc2[nH]1)C1=C[C@H](c2ccc(Br)cc2)C[C@H](OCc2ccc(CO)cc2)O1 — higher, 17.9%
- CCC(=O)Nc1ccc(C(=O)Nc2cc(C)on2)cc1 — lower, -8.48%
- COc1ccc(N(CC(=O)Nc2cccc(N(C)S(C)(=O)=O)c2)S(=O)(=O)c2ccc(F)cc2)cc1 — higher, 15.5%
- COc1ccc(-c2cc(Nc3ccccc3NC(=O)C(F)(F)F)n(CCC#N)n2)cc1 — lower, 5.4%
- O=C(c1ccc(F)cc1)N1CCN(c2cnn(-c3ccccc3)c(=O)c2Cl)CC1 — lower, -12.2%
- O=C(CN1C(=O)c2cccc3cccc1c23)Nc1ccccc1 — lower, 3.92%
- O=C(/C=C1\SC(=O)NC1=O)Nc1ccc(F)cc1 — lower, 6.55%
- O=C(c1cnn2c(C(F)(F)F)cc(-c3cccs3)nc12)N1CCN(C(c2ccccc2)c2ccccc2)CC1 — lower, 13.4%
- CN(C)CC(C)(C)CNC(=O)CC1C(=O)NCCN1Cc1ccc(-c2ccccc2)cc1 (stereo not shown) — lower, 3.88%
- COc1ccc(C2=NN(C(=O)CN3CCCCC3)C(c3ccc(OC)cc3)C2)cc1 (stereo not shown) — lower, -8.18%
- CS(=O)(=O)N(CC(=O)N1CCN(c2ccccc2)CC1)c1ccc(Cl)c(C(F)(F)F)c1 — higher, 18.9%
- Nc1c(C(=O)Nc2ccccc2)sc2nc(-c3cccnc3)ccc12 — lower, 5.13%
- CCOC(=O)c1c(-c2ccccc2)csc1NC(=S)NC(=O)c1ccccc1 — higher, 24.5%
- CCOC(=O)CSC1=Nc2ccccc2C2=NC(CC(=O)NCc3cccs3)C(=O)N12 (stereo not shown) — lower, -1.83%
- COCc1cc(=O)[nH]c2cc(NC(=O)C(F)(F)F)c(C)cc12 — lower, 5.36%
- COc1ccc(C(=O)COC(=O)CCNS(=O)(=O)c2ccc(NC(C)=O)cc2)c(OC)c1 — lower, 6.37%
- CC(C)NC(=O)NC(=O)CSc1ccc(S(=O)(=O)N2CCCC2)cn1 — lower, -1.38%
- CCCNC(=O)Cn1c(-c2ccc(F)cc2)cc(C(=O)OCC)c1C — lower, 7.7%
- COc1ccccc1NC(=O)CC1CCCC1 — lower, 11.5%
- COc1ccc(N(C(=O)c2ccccc2OC(C)=O)C(C)C2CC2)cc1 (stereo not shown) — lower, 4.18%
- CCn1c(=NC(=O)C2COc3ccccc3O2)sc2c(OC)ccc(OC)c21 (stereo not shown) — lower, 9.2%
- CCOC(=O)COc1nc(C)c(Br)c(OC)n1 — lower, 8.04%
- CCCC(=O)Nc1cccc(Oc2nc(C)cc(C)c2C#N)c1 — lower, 9.11%
- CN(C)CC(C)(C)CNC(=O)c1cc(Br)cc(Br)c1O — lower, 2.84%
- CC(C)C[C@@H](CO)N1CCN(CC(C)C)CCC1=O — lower, 1.1%
- CC(NC(=S)NCCc1ccccc1)C(c1cccs1)N1CCN(C)CC1 (stereo not shown) — lower, 10.8%
